# The list shows a part of the results.
# Tested on: PfAP2-HC AP2 domain (GST-tagged)
# Test: gcPBM binding intensity (ln(normalized median fluorescence intensity)); higher = stronger DNA binding
# How it was run: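 Alexa488 anti-GST antibody, scanned at 488 nm, detected GST-tagged P. falciparum DNA-binding domains that had been expressed in E. coli and incubated for 1 h on an Agilent 4 × 180k array. The array carried primer-extended double-stranded 36-bp intergenic genomic probes and negative controls. Binding intensity is the highest Masliner-normalised natural-log median intensity across replicate spots of either orientation of each probe.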
row,Sequence,gcPBM binding intensity (ln)
1,TTTTATTATTAAACATGTACCCATATTATTGTTATG [XGTACX_site5563],9.64
2,TTCTTAAAAAATCAAACACACATATATATATACATA [CACACA_site2296],9.69
3,ATAAATAGAATAAAATGTACATGTAATACATATATA [XGTACX_site5475],9.85
4,GTTTAGATAAAAGGGCGTACATCTATTTTTGACTAA [XGTACX_site7170],9.47
5,AAAACAAAAAAATTTTGTACGAAACAATACTGTAAG [XGTACX_site7992],9.67
6,TATATATATTGTTATTGTACACAAATATAGGAAATA [XGTACX_site7110],9.62
7,AAATTTGGTGAAGGATGTACTTTACCTAATACTTGT [XGTACX_site4825],9.56
8,AGAATTATATCATGGTGTACTTATTTGTTTATTTCT [XGTACX_site5795],9.81
9,ATAAATTAAACAAACACACACGTTCTTTTATTTACT [CACACA_site4556],9.95
10,AAAAAAATATATTCCTAATTTATGATTAAAAGGAAT [CACACA_negctrl_site751],9.47
11,TTTTTTTTTGGGTGTACACATGAATATATATTTTTT [CACACA_site5254],9.66
12,AAAAAAAAAAAAAATTGTACGGATTCTTTTTTTTTT [XGTACX_site2898],9.38
13,ATATTTTTTTTTTTCACACACATTTAGATTGTATTA [CACACA_site3137],10.2
14,TTGTATAAAAAACTAAAAAATATAAAATAATAAGTG [CACACA_negctrl_site1704],9.68
15,AACATTATCAAATAAACCATAAATCAATTCAATATG [CACACA_negctrl_site696],9.68
16,AAACGTTTATTTTATTGTACATATGAAAAATGCTTC [XGTACX_site6896],9.66
17,GAAATATTGAAACACACACACAAACATATATATATA [CACACA_site1911],10.8
18,TATAAAAAAAATAAAATAAAATAAAATAGAAAAATA [TGCATGCA_negctrl_site109],9.62
19,CGTAATAATTAATGTTGTACCCACCAAAAAAATTAA [XGTACX_site8592],9.52
20,ATTACATTTTTGTTTTGTACATATATTTTATAAACA [XGTACX_site494],9.65
21,TTGTTTTGTAATAAAAAAAAAATAATATAATATAAT [XGTACX_negctrl_site300],9.49
22,TATATTTATATATATACACACATAATAAAAAATATA [CACACA_site844],9.72

row,Sequence,gcPBM binding intensity (ln)
1,GTAAGAAACAGACACACACACATATAAATATAAATA [CACACA_site6515],10.5
2,TATTGAAAAAGTGGAAAAAAGTACATCATACGGGAA [CACACA_negctrl_site1091],10
3,ATATTTATACTATACACACCCAATTTAAAAAAAAAT [CACACA_site1163],9.91
4,GAAAAATTAAAATGTGGTACAATAAAATTTTATTCA [XGTACX_site5030],9.64
5,AATTTATTAATACAAAGTACTTTCTAATATGAATTT [XGTACX_site8013],9.66
6,TTATTGCGCACAATTTGTACATATATATATATAGAA [XGTACX_site7573],9.56
7,AGTGTATTAAATTTTGAACACACAAAATAAAACATA [CACACA_site8483],9.88
8,TTTTAATTTAAAAATTAATTTATATATATATATATA [TGCATGCA_negctrl_site447],9.31
9,TTTAGACTTTTCTATAGTACATATTATATATATATA [XGTACX_site6532],9.6
10,TAAATCACAAAATTATGTACTAAGAAGGAGCAACAT [XGTACX_site6742],9.68
11,TATACCTTAATATACACACATACATATATATATATA [CACACA_site1339],9.83
12,TATATACATTTTTATGTGCACATTTTATTTTTAAAT,10.1
13,TAACAAAGTAAAAGAACATGCAAACACGCACACAGA [TGCATGCA_site374],10.8
14,GGGGAAAAAGCAGGTTGTACAGTGATGTCCATATAA [XGTACX_site7606],9.85
15,TTTTTTTTTTTTTTTACACACTGCATACAAGAAAAA [CACACA_site5642],9.38
16,AAAATACGAATATAAACATGCACCATATAGAACAAA [TGCATGCA_site925],9.88
17,TAAAATAAAATAAGTAGTACATATATAATTATATAT [XGTACX_site6733],9.63
18,TACAAATATAGATGCACACACATATACATACCTATA [CACACA_site7094],10.3
19,TTTTTACAAAAAAAAAAAAAAAAAATAAAAATAAAT [CACACA_negctrl_site1738],9.21
20,TTTTTTTTTTCTCCTGCATGCAGCATTTATATATTA [TGCATGCA_site390],10
21,TATATATATATATATACATGCATTTTTGTTTGCTTA [TGCATGCA_site256],9.57
22,GACAACGTTTCAATGTGTACATATTTATAATATATA [XGTACX_site2427],9.6

row,Sequence,gcPBM binding intensity (ln)
1,ATTGAAAAACCGTTTAGTACATATCATCACGTTTGT [XGTACX_site1295],9.68
2,TATATATATATATGTACACACATCAATCATATTAAC [CACACA_site1946],10.1
3,ATATATCATGCCAAGGGTACAAATGTGTAGTTGAAA [XGTACX_site2820],9.74
4,TTTTTTAAATATTATTTTTATGAGTAAATATATTAT [GTGCAC_negctrl_site277],9.28
5,GACGTGGAAAAAAAAACACACACAAAAAAAAAAAAA [CACACA_site9324],10.4
6,TGAACATCATTTTTATGTACACACACATATACGTTG [XGTACX_site3864],10.2
7,AAAACAAACAAAAAAAAAAAAAAAAATATCAATCTA [TGCATGCA_negctrl_site203],9.61
8,TAATTACCATATGGTACACACATATTTATAGGTATA [CACACA_site7603],9.84
9,CGCGCACCCAGACACACACACACACCCATATATATA [CACACA_site2203],10.6
10,ACGTATAATATGTACACACACATATATACCAAAAAA [CACACA_site4661],10.4
11,GATAAAATAATATATAGTACTTTTTTAAAATAAATA [XGTACX_site522],9.5
12,GAAAAAAAAAAAAAAAGTACATTCTCTATTTCATGT [XGTACX_site3209],9.55
13,ATAAATTTAAATAGGAGTACACAGCTTTATATTTTG [XGTACX_site4176],9.71
14,TATAAAACACACACACATATATATATATATTTATAT [TGCATGCA_negctrl_site48],11.2
15,AATTTTAAATTTAATTTACACACTTTTCATAGCATT [CACACA_site9264],9.77
16,ATTTACAAAAATTTTGTATAAAGGGATTTTAAAATG [TGCATGCA_negctrl_site350],9.29
17,TTATTTTATTTTTATACACACATGTTTTAATGTTCA [CACACA_site249],10
18,TATATATACACACACACATGCATGCCGATATATATA [TGCATGCA_site29],10.8
19,AAAAGATATTTGAATATACACACGATTTAAATTTAA [CACACA_site3865],9.7
20,AAAGATTTAATCTATACATGCAAATATATAGAAAAG [TGCATGCA_site373],9.63
21,AATAAAAATAGGAAATGTACACATATATATATATAT [XGTACX_site1853],10.1
22,AGATGCCAAGTATAAAGTACATATCAAAATGTATAT [XGTACX_site456],9.75

row,Sequence,gcPBM binding intensity (ln)
1,GAACAAAATTTTATATGTACATAATATTTATATATA [XGTACX_site3667],9.55
2,AGGAGGATAGTTCACAGTACCCAGTAACTCTACGAG [XGTACX_site2008],9.48
3,AAAATTAATGTTGGTTGTACAAAAATTAAATATGGT [XGTACX_site66],9.96
4,GTACAAAGGACTATACATAGAAAAATATATATATAT [XGTACX_negctrl_site164],9.63
5,AAAACTTTTAAAATTTTGTATTCATTCCTTCAACAA [GTGCAC_negctrl_site697],9.49
6,TTTATAATTCCATAATGTACAAATAAAATAAAAAAT [XGTACX_site663],9.6
7,TATATTCAAAATGGTACACACAATATTTAATTGTGC [CACACA_site2631],9.72
8,TGACATATAAAATATTCACACACAAGTTATAGTTCT [CACACA_site9209],9.94
9,ACATTTTCTTATAAATGTACATATATATTATTATAT [XGTACX_site4404],9.76
10,AAAGTATATAGGATACGTACATACATAAATAAATAA [XGTACX_site8216],9.77
11,GTACAAAATTGACAAGTGCAAAAATTAAAAGCAAGA [GTGCAC_site9838],10
12,ATATATATATAAATATGTACATATATTTATTTCTTT [XGTACX_site3784],9.69
13,TATAAAAATAAGCACACACACAAATATAGATTTATT [CACACA_site6558],11.3
14,GTGTGAGCACATTCGGGAGAGTTTTTTTTTTTTTTT [CACACA_negctrl_site1776],9.53
15,ATATATTCTATATATACATGCATATATATTATATGT [TGCATGCA_site185],9.68
16,TGAATAAATATGCAGCGTACATAATCCTCTTAAAAT [XGTACX_site8462],9.55
17,GTTAAATGAAAATATGTACACACTTGAAAATTTTTA [CACACA_site2924],9.55
18,ATGCAACTATATATATATATTATATGTATGAATAAT [XGTACX_negctrl_site434],9.61
19,TTAATAGAAATACGTGCACACTAAAGGGAAAACAAT [CACACA_site4923],10.1
20,ACAAGTATTAATTACACACTCAAAAAGAAAAAACAA [CACACA_site2281],9.79
21,AAAAAAAAAAAAAGCACACATATAAATATGAATAAA [CACACA_site1393],9.74
22,AAAAAAAAAAAAAACACACACATACACCCAAAAATG [CACACA_site4223],10.3
